Test results: PubChem BioAssay (NCATS)
Several values for one entry are separate records, joined by “and”; a condition that tells them apart may be missing. Equal entries are not always repeated. Inconclusive means that the source gave no clear call. Such entries were picked first, then a sample of the others. For some of these results: Potencies of inconclusive entries are doubtful fits and often do not repeat. Activity calls are given as the source filed them. Unless noted, the call rests on the fitted dose curve; in most records, active means well fitted curve in the direction sought with a large enough effect; inconclusive means small, poorly fitted or top-dose-only effect, or another doubt; inactive means no such curve, though single readings can be large; an effect the other way counts as inactive or inconclusive.

Assays:
[1] = P-glycoprotein substrates identified in KB-8-5-11 adenocarcinoma cell line, qHTS therapeutic library screen (AID 1346987); further: nearly all actives have a fitted effect of over 65% in size; on activity change, negative = cytotoxicity: on the % scale 0 is the no-effect control and ±100 the full control effect
How it was run: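 Luminescence from CellTiter-Glo, read 5 min after addition, quantified survival of KB-8-5-11 (P-gp-overexpressing) cells exposed to compounds for 72 h. AC50 was derived from concentration-response curves.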

[2] = system: Zika virus NS2B-NS3 protease (linked construct); experiment: Primary screen NINDS Rhodamine qHTS for Zika virus inhibitors (AID 1347160); details: activity change, negative = inhibition: at 57.1 µM (top of the series) unless noted; further: nearly all actives have a fitted effect of over 55% in size
How it was run: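 Each compound, titrated, sat 15 min with 25 nM linked protease before 1.5 microM Rhodamine110 substrate went in. Fluorescence gain over the next 15 min, in pH 8.0 Tris with Tween 20, gave Hill-fitted curves.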

[3] = system: NIH3T3; experiment: Cytotoxic Profiling of Annotated Libraries Using Quantitative High-Throughput Screening (AID 1296008); details: Five cell lines viability, CellTiter-Glo ATP luminescence, 48-72 h; max response: hits give low values; further: nearly all actives have a fitted effect of over 60% in size; on max response: on the % scale 0 is the no-effect control and ±100 the full control effect
How it was run: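 Compounds were pin-transferred onto cells and incubated 48 or 72 hr at 37 degree Celsius, 95% humidity. CellTiter-Glo was added, plates sat 10 min at room temperature, then ATP-coupled luminescence was imaged as the viability read-out.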

[4] = system: Zika virus NS2B-NS3 protease (unlinked complex); experiment: Primary screen GU Rhodamine qHTS for Zika virus inhibitors: Unlinked NS2B-NS3 protease assay (AID 1347159); further: nearly all actives have a fitted effect of over 60% in size; on activity change, negative = inhibition: on the % scale 0 is the no-effect control and ±100 the full control effect
How it was run: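 In dose–response format, inhibition of unlinked protease (25 nM) was measured with 1.5 microM bis-peptide Rhodamine110 substrate. Aprotinin served as the intraplate control.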

[5] = Primary qHTS for inhibitors of nuclear receptor binding SET domain protein 2 (NSD2) in an isogenic RCH-ACV NSD2 p.E1099K mutant (9B) (AID 1645876); further: nearly all actives have a fitted effect of over 70% in size; on activity change, negative = viability loss: on the % scale 0 is the no-effect control and ±100 the full control effect
[6] = Primary qHTS for inhibitors of nuclear receptor binding SET domain protein 2 (NSD2) in an RCH-ACV wild type WT cells (2C) (AID 1645877); details: activity change, negative = cell killing: at 44.9 µM (top of the series) unless noted; further: nearly all actives have a fitted effect of over 70% in size
[7] = target: Phospholipid hydroperoxide glutathione peroxidase GPX4 (Homo sapiens) (UniProt P36969); experiment: Primary qHTS Assay for Inhibitors of Recombinant Selenoprotein Glutathione Peroxidase 4 (GPX4) (AID 1845192); further: nearly all actives have a fitted effect of over 65% in size
How it was run: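 qHTS, GR-coupled: GPX4 200 nM + cpd 30 min RT → GSH 1 mM, NADPH 0.5 mM, GR 100 nM → CHP 0.5 mM start; fluor 340/450 at t0 and t15 min; no-enzyme wells as control.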

[8] = target: Cytochrome P450 2D6 (Homo sapiens) (UniProt P10635); experiment: Cytochrome P450 family 2 subfamily D member 6 (CYP2D6) small molecule antagonists: luciferase biochemical (cell-free) qHTS assay (AID 1645840; active means well fitted curve in the direction sought with a large enough effect in the repeat runs; inconclusive means weak or mixed curves; inactive means no such curve, though single readings can be large; an effect the other way counts as inactive or inconclusive; further: nearly all actives have a fitted effect of over 55% in size)
How it was run: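 P450-Glo CYP2D6 system: proluciferin substrate converted by enzyme to luciferin, read by luminescence proportional to activity. Enzyme-substrate mix with compound 10 min at room temperature, then NADPH regeneration 1 h before detection reagent.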

[9] = system: CP247; experiment: qHTS profiling for inhibitors of Plasmodium falciparum proliferation (AID 504749); further: nearly all actives have a fitted effect of over 60% in size; details: P. falciparum in erythrocytes, SYBR Green DNA, 72 h; series mostly up to 28.7 µM
How it was run: (§1)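 Quantitative HTS: compounds pinned into medium, infected erythrocytes added (0.3% parasitemia, 2.5% hematocrit), 72 h culture at 37 C under 5% CO2. Saponin/Triton lysis with SYBR Green I, overnight RT, then fluorescence read.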

[10] = system: CP260; experiment: as above; details: P. falciparum in erythrocytes, SYBR Green DNA, 72 h; series mostly up to 28.7 µM
How it was run: as §1

[11] = system: DIV14; experiment: as above; details: P. falciparum in erythrocytes, SYBR Green DNA, 72 h; series mostly up to 28.7 µM
How it was run: as §1

[12] = Drug repurposing screens with cells derived from glioblastoma tumor samples (AID 1345199); details: GBM patient neurospheres viability, ATP luminescence, 48 h; Potency: tumour line A unless noted; activity, negative = cell killing: at 46 µM (top of the series), tumour line A unless noted; further: nearly all actives have a fitted effect of over 40% in size
How it was run: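 Primary testing used CD133+ neurospheres from four GBM patients, seven concentrations, 48 h exposure and ATP-based viability; confirmation added three slower-growing patient lines.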

[13] = system: SKOV3; experiment: Primary qHTS to identify gynecologic anti-cancer compounds using libraries of approved drugs and bioactive compounds (AID 1345084); details: Gynecologic cancer cell panel viability, ATPlite luminescence, 48 h; series mostly up to 57.5 µM; further: nearly all actives have a fitted effect of over 55% in size
How it was run: (§2)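 Cells, 1,000 per well, were allowed to settle for 16 h at 37 C before compound addition. Five concentrations were tested for 48 h, and viability was read by ATPlite luminescence after 15 min at room temperature.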

[14] = Primary fluorescence-based thiol-reactive (MSTI) qHTS assay for identification of artifact compounds. (AID 1845221);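 further: thiol-reactive compounds lower the probe fluorescence signal; nearly all actives have a fitted effect of over 65% in size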
How it was run: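 qHTS titration of compound; 4 uM MSTI, PBS pH 7.4, 2% DMSO; 1 h RT, dark; fluorescence 525/598 nm; normalized to Acetyl-MSTI and MSTI; 4-parameter Hill fit.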

[15] = system: PA-1; experiment: Primary qHTS to identify gynecologic anti-cancer compounds using libraries of approved drugs and bioactive compounds (AID 1345084); details: Gynecologic cancer cell panel viability, ATPlite luminescence, 48 h; series mostly up to 57.5 µM; further: nearly all actives have a fitted effect of over 55% in size
How it was run: as §2

[16] = Primary redox qHTS assay for identification of artifact compounds. (AID 1845223); details: Amplex Red/HRP redox cycling with DTT, fluorescence; redox activity (% of DA3003): at 53.8 µM (top of the series);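 on redox activity (% of DA3003): 0% = DMSO and 100% = reference compound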
How it was run: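 Redox-cycling detection via DTT (250 uM final) oxidation coupled to Amplex Red (25 uM)/HRP (250 mU/mL) in HBSS. 15 min preincubation plus 30 min after DTT, room temperature. Ex/Em 525/598 nm; 4-parameter Hill fit against DMSO and 10 uM DA3003.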

[17] = qHTS of pediatric cancer cell lines to identify multiple opportunities for drug repurposing: Primary screen for BT-37 cells (AID 1347094)
How it was run: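 Primary screen of approved and investigational compounds on cells in growth media at 37 degrees C, 5% CO2. MIPE set at 11-point and NPC set at 8-point dilutions; viability scored by ATP-based luminescence at 48 hours.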

[18] = system: Tov-21-G; experiment: Primary qHTS to identify gynecologic anti-cancer compounds using libraries of approved drugs and bioactive compounds (AID 1345084); details: Gynecologic cancer cell panel viability, ATPlite luminescence, 48 h; activity change, negative = cytotoxicity: at 57.5 µM (top of the series) unless noted; further: nearly all actives have a fitted effect of over 55% in size
How it was run: as §2
Potency means the concentration at half of the fitted maximal effect; tags describe the fitted curve by direction and shape.

Chain of UniProt P10635 (P10635 whole entry, looked up): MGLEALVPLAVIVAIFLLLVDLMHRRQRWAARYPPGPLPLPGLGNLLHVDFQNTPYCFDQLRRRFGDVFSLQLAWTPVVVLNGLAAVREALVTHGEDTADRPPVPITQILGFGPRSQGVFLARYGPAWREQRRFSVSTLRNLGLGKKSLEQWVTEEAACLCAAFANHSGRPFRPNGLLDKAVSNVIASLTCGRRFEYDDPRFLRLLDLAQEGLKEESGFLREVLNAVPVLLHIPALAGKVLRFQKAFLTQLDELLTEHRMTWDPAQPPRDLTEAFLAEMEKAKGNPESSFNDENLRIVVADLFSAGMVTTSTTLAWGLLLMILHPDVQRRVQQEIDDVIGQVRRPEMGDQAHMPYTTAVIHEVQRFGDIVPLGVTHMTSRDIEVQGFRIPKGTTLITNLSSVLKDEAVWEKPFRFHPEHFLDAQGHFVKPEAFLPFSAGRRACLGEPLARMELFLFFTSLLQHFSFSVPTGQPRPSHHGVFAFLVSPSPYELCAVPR
Chain of UniProt P36969 (P36969 whole entry, looked up): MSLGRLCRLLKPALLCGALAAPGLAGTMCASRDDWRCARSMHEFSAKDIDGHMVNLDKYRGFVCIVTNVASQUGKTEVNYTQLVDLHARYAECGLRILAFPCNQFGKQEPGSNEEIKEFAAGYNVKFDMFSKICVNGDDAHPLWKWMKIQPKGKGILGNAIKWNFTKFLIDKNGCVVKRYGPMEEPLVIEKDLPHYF

**Q.** Which Potency [1] does the source give for `O=C(O)C[C@H](O)C[C@H](O)C=Cc1c(C2CC2)nc2ccccc2c1-c1ccc(F)cc1` here?
**A.** active: 7.43 µM

**Q.** With `CCC[C@H](N[C@@H](C)C(=O)N1[C@H](C(=O)O)C[C@@H]2CCCC[C@@H]21)C(=O)O` as the compound, how does the Potency [2] read?
**A.** inconclusive: 39.8 µM [inhibitor, single point]

**Q.** And the max response [3]?
**A.** inactive: -10.2%

**Q.** With `COC1C=C([C@@H]2CC=C3[C@@]4(C)C(CC[C@]32C)[C@@]2(C)C=CC(=O)C(C)(C)C2C[C@H]4OC(C)=O)C(=O)O1` (stereo not given in full) as the compound, how does the Potency [4] read?
**A.** inconclusive: 15.8 µM [inhibitor, partial curve, poor fit]

**Q.** What about the Potency [2] of the same compound?
**A.** inconclusive: 15.8 µM [inhibitor, single point]

**Q.** What about the Potency [5] of the same compound?
**A.** inconclusive: 11.2 µM [inhibitor, single point]

**Q.** What about the Potency [6] of the same compound?
**A.** inconclusive: 8.93 µM [inhibitor, single point]

**Q.** With `CN1C(=O)c2sccc2N(C)c2nc(Nc3ccc(S(N)(=O)=O)cc3)ncc21` as the compound, how does the Potency [6] read?
**A.** active: 0.59 µM

**Q.** What about the Potency [7] of the same compound?
**A.** inconclusive: 12.8 µM [inhibitor, partial curve, poor fit]

**Q.** And the Potency [3]?
**A.** active: 16.6 µM

**Q.** Which Potency [1] does the source give for `NC(=O)C1(N2CCCCC2)CCN(CCCC(=O)c2ccc(F)cc2)CC1` here?
**A.** inconclusive: 29.1 µM [inhibitor, single point]

**Q.** And the Potency [8]?
**A.** active: 4.36 µM

**Q.** And the Potency [5]?
**A.** inactive

**Q.** What about the Potency [9] of the same compound?
**A.** inconclusive: 11.2 µM [inhibitor, single point]

**Q.** What about the Potency [10] of the same compound?
**A.** inconclusive: 17.8 µM [inhibitor, single point]

**Q.** And the Potency [11]?
**A.** inconclusive: 10.7 µM [inhibitor, partial curve]

**Q.** What about the Potency [12] of the same compound?
**A.** active: 10 µM

**Q.** Which activity change, negative = inhibition [4] does the source give for `C[C@@H]1O[C@@H](O[C@@H]2[C@@H](O)[C@H](O[C@@H]3[C@@H](O)[C@@H](O)[C@H](O[C@H]4[C@H](OC(=O)[C@]56CCC(C)(C)C[C@H]5C5=CCC7[C@@]8(C)C[C@H](O)[C@H](O[C@@H]9O[C@@H](C)[C@H](O)[C@@H](O)[C@H]9O)[C@@](C)(CO)C8CC[C@@]7(C)[C@]5(C)C[C@H]6O)O[C@H](C)[C@H](O)[C@@H]4O)O[C@H]3C)OC[C@H]2O)[C@H](O)[C@H](O)[C@H]1O` (stereo not given in full) here?
**A.** inactive: -9.55% [at 19.1 µM]

**Q.** What about the Potency [5] of the same compound?
**A.** inconclusive: 3.07 µM [inhibitor, single point]

**Q.** What about the Potency [6] of the same compound?
**A.** inconclusive: 3.45 µM [inhibitor, single point]

**Q.** And the Potency [13]?
**A.** inconclusive: 5.62 µM [rising, single point]

**Q.** With `CC(C)[N+]1(C)C2CCC1CC(OC(=O)C(CO)c1ccccc1)C2` (stereo not given) as the compound, how does the Potency [1] read?
**A.** inactive

**Q.** And the Potency [14]?
**A.** inconclusive: 3.36 µM [inhibitor, full curve, poor fit]

**Q.** What about the Potency [15] of the same compound?
**A.** inconclusive: 0.708 µM [cytotoxic, full curve, poor fit]

**Q.** And the Potency [13]?
**A.** inconclusive: 3.16 µM [rising, full curve, poor fit]

**Q.** Which results are given for `CCNC(=O)Nc1ncc(-c2cc(-c3c(C)cc(OC)cc3C)nc(-c3cnccn3)n2)s1`?
**A.** Potency [16]: inactive; Potency [3]: inconclusive: 0.517 µM [inhibitor, full curve, poor fit]

**Q.** For `O=C(Nc1ccn(Cc2c(F)cccc2C(F)(F)F)n1)c1c(F)cccc1F`, which redox activity (% of DA3003) [16] is on record?
**A.** inactive: -0.702% [at 11.5 µM]

**Q.** What about the max response [3] of the same compound?
**A.** inactive: 2.19%

**Q.** What does the source list for `C/C=C1/[C@H](O[C@@H]2O[C@H](CO)[C@@H](O)[C@H](O)[C@H]2O)OC=C(C(=O)OC)[C@H]1CC(=O)OCCc1ccc(OC(=O)C[C@@H]2C(C(=O)OC)=CO[C@@H](O[C@@H]3O[C@H](CO)[C@@H](O)[C@H](O)[C@H]3O)/C2=C/C)cc1`?
**A.** Potency [4]: inconclusive: 14.1 µM [inhibitor, partial curve]; activity change, negative = viability loss [5]: inactive: -12% [at 9.23 µM]; Potency [14]: inconclusive: 5.05 µM [inhibitor, single point]; Potency [16]: inconclusive: 4.5 µM [activator, single point]; max response [3]: inactive: 2.32%

**Q.** Which results are given for `CC1(C)CCC[C@@]2(C)C1[C@H](OC(=O)/C=C/C=C/C(=O)O)C=C1COC(=O)[C@@]12O` (stereo not given in full)?
**A.** Potency [1]: inactive; Potency [4]: inconclusive: 10 µM [inhibitor, full curve]; Potency [5]: inactive; Potency [15]: inconclusive: 1 µM [rising, partial curve, poor fit]; Potency [13]: inactive

**Q.** Which Potency [1] does the source give for `CCOC(=O)N1CCC(=C2c3ccc(Cl)cc3CCc3cccnc32)CC1` here?
**A.** inconclusive: 8.2 µM [inhibitor, partial curve]

**Q.** And the Potency [17]?
**A.** inconclusive: 38.5 µM [cytotoxic, single point] and inconclusive: 38.9 µM [cytotoxic, single point]

**Q.** And the Potency [5]?
**A.** inconclusive: 2.37 µM [inhibitor, partial curve, poor fit]

**Q.** And the Potency [6]?
**A.** inconclusive: 2.11 µM [inhibitor, partial curve, poor fit]

**Q.** And the Potency [9]?
**A.** inconclusive: 14.1 µM [inhibitor, single point]

**Q.** And the Potency [10]?
**A.** active: 12.6 µM

**Q.** What about the Potency [15] of the same compound?
**A.** inconclusive: 39.8 µM [cytotoxic, single point]

**Q.** And the Potency [13]?
**A.** inconclusive: 39.8 µM [cytotoxic, single point]

**Q.** What about the Potency [18] of the same compound?
**A.** inconclusive: 35.5 µM [cytotoxic, single point]

**Q.** And the Potency [12]?
**A.** active: 10 µM

**Q.** With `C[C@@H]1O[C@@H](O[C@H]2[C@H](O[C@H]3[C@H](O[C@H]4CC[C@@]5(CO)C(CC[C@]6(C)C5CC=C5C7CC(C)(C)C[C@@H](O)[C@]7(C)CC[C@]56C)C4(C)C)O[C@H](C(=O)O)[C@@H](O)[C@@H]3O)OC[C@@H](O)[C@@H]2O)[C@H](O)[C@H](O)[C@H]1O` (stereo not given in full) as the compound, how does the Potency [4] read?
**A.** inconclusive: 7.08 µM [inhibitor, full curve]

**Q.** What about the activity change, negative = cell killing [6] of the same compound?
**A.** inactive: -8.5% [at 9.23 µM]

**Q.** What about the max response [3] of the same compound?
**A.** inactive: -0.118%

**Q.** Which Potency [5] does the source give for `COc1ccc(C2=CC(=O)OC2Cc2ccc(O)cc2)c(O)c1` (stereo not given) here?
**A.** inactive

**Q.** And the Potency [14]?
**A.** inconclusive: 13.1 µM [inhibitor, partial curve]

**Q.** And the max response [3]?
**A.** inactive: 1.17%
